{
  "source": "the supplement of paper PMC11876631",
  "proteins": {"B1": {"name": "accD V110A (protein)", "chain": "MSWIERIKSNITPTRKASIPEGVWTKCDSCGQVLYRAELERNLEVCPKCDHHMRMTARNRLHSLLDEGSLVELGSELEPKDVLKFRDSKKYKDRLASAQKETGEKDALVAMKGTLYGMPVVAAAFEFAFMGGSMGSVVGARFVRAVEQALEDNCPLICFSASGGARMQEALMSLMQMAKTSAALAKMQERGLPYISVLTDPTMGGVSASFAMLGDLNIAEPKALIGFAGPRVIEQTVREKLPPGFQRSEFLIEKGAIDMIVRRPEMRLKLASILAKLMNLPAPNPEAPREGVVVPPVPDQEPEA"}, "B2": {"name": "accD V110D (protein)", "chain": "B1 chain with A110D"}, "B3": {"name": "accD V110Q (protein)", "chain": "B1 chain with A110Q"}, "B4": {"name": "accD V110W (protein)", "chain": "B1 chain with A110W"}, "B5": {"name": "accA I115Q (protein)", "chain": "MSLNFLDFEQPIAELEAKIDSLTAVSRQDEKLDINIDEEVHRLREKSVELTRKIFADLGAWQIAQLARHPQRPYTLDYVRLAFDEFDELAGDRAYADDKAIVGGIARLDGRPVMQIGHQKGRETKEKIRRNFGMPAPEGYRKALRLMQMAERFKMPIITFIDTPGAYPGVGAEERGQSEAIARNLREMSRLGVPVVCTVIGEGGSGGALAIGVGDKVNMLQYSTYSVISPEGCASILWKSADKAPLAAEAMGIIAPRLKELKLIDSIIPEPLGGAHRNPEAMAASLKAQLLADLADLDVLSTEDLKNRRYQRLMSYGYA"}, "B6": {"name": "bioF I320A (protein)", "chain": "MSWQEKINAALDARRAADALRRRYPVAQGAGRWLVADDRQYLNFSSNDYLGLSHHPQIIRAWQQGAEQFGIGSGGSGHVSGYSVVHQALEEELAEWLGYSRALLFISGFAANQAVIAAMMAKEDRIAADRLSHASLLEAASLSPSQLRRFAHNDVTHLARLLASPCPGQQMVVTEGVFSMDGDSAPLAEIQQVTQQHNGWLMVDDAHGTGVIGEQGRGSCWLQKVKPELLVVTFGKGFGVSGAAVLCSSTVADYLLQFARHLIYSTSMPPAQAQALRASLAVIRSDEGDARREKLAALITRFRAGVQDLPFTLADSCSAAQPLIVGDNSRALQLAEKLRQQGCWVTAIRPPTVPAGTARLRLTLTAAHEMQDIDRLLEVLHGNG"}, "B7": {"name": "bioF V345D (protein)", "chain": "B6 chain with A320I, V345D"}, "B8": {"name": "bioF V345Q (protein)", "chain": "B6 chain with A320I, V345Q"}, "B9": {"name": "bioF V345A (protein)", "chain": "B6 chain with A320I, V345A"}, "B10": {"name": "bioF I320P (protein)", "chain": "B6 chain with A320P"}, "B11": {"name": "bioF V345P (protein)", "chain": "B6 chain with A320I, V345P"}, "B12": {"name": "bioF V345W (protein)", "chain": "B6 chain with A320I, V345W"}, "B13": {"name": "bioF I320Q (protein)", "chain": "B6 chain with A320Q"}},
  "note": "Changes are numbered by the printed parent chain. Numbers in names are those of the source. ± gives the standard deviation of the averaged measurements. Laboratory Escherichia coli strains with one amino-acid change in an essential protein, pooled on minimal glucose agar with carbenicillin or gentamicin at twice the control MIC (plus kanamycin and chloramphenicol for the plasmids), 48 h. Fold change of barcode share against drug-free plates; higher = less susceptible. Active = above 20 in both replicates (the paper's putatively resistant). '<' = one read or none on drug, '>' = one read or none on a drug-free plate. Shares are relative, so most strains fall below 1 when a few take over. Listed are strains with at least 15 reads on both drug-free plates, and hits; most hits rest on fewer reference reads. Replicate rank correlation about 0.5. Edits are read from barcodes.",
  "data": [
    {"molecular_target": "Escherichia coli (laboratory strain)", "assay": "barcode share on antibiotic plates over drug-free plates; higher = less susceptible", "conditions": "antibiotic: carbenicillin; 2× MIC (3.1 µg/mL)", "method": "(§1)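 A pool of E. coli strains, each edited to carry one amino-acid change in an essential protein, was grown for 48 h on minimal glucose agar with or without antibiotic; strain barcodes were sequenced; mean of two replicates.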", "values": [
      {"protein": "B1", "fold change of barcode share": "0.478 ± 0.06"},
      {"protein": "B2", "fold change of barcode share": "0.588 ± 0.024"},
      {"protein": "B3", "fold change of barcode share": "0.421 ± 0.018"},
      {"protein": "B4", "fold change of barcode share": "0.415 ± 0.053"},
      {"protein": "B5", "fold change of barcode share": "1.3 ± 0.51"},
      {"protein": "B6", "fold change of barcode share": "0.452 ± 0.25"},
      {"protein": "B7", "fold change of barcode share": "0.542 ± 0.035"},
      {"protein": "B8", "fold change of barcode share": "0.492 ± 0.016"},
      {"protein": "B9", "fold change of barcode share": "0.409 ± 0.12"},
      {"protein": "B10", "fold change of barcode share": "0.362 ± 0.081"},
      {"protein": "B11", "fold change of barcode share": "0.552 ± 0.036"},
      {"protein": "B12", "fold change of barcode share": "0.717 ± 0.0075"},
      {"protein": "B13", "fold change of barcode share": "0.409 ± 0.17"}
    ]},
    {"molecular_target": "Escherichia coli (laboratory strain)", "assay": "barcode share on antibiotic plates over drug-free plates; higher = less susceptible", "conditions": "antibiotic: gentamicin; 2× MIC (MIC 0.45 µg/mL)", "method": "as §1", "values": [
      {"protein": "B1", "fold change of barcode share": "0.0134 ± 0.0034"},
      {"protein": "B2", "fold change of barcode share": "0.0202 ± 0.014"},
      {"protein": "B3", "fold change of barcode share": "0.00807 ± 0.0019"},
      {"protein": "B4", "fold change of barcode share": "0.00541 ± 0.0021"},
      {"protein": "B6", "fold change of barcode share": "0.011 ± 0.0059"},
      {"protein": "B7", "fold change of barcode share": "0.0178 ± 0.0044"},
      {"protein": "B8", "fold change of barcode share": "0.00759 ± 0.00041"},
      {"protein": "B9", "fold change of barcode share": "0.00952 ± 0.0051"},
      {"protein": "B10", "fold change of barcode share": "0.0188 ± 0.00029"},
      {"protein": "B11", "fold change of barcode share": "0.00773 ± 0.0034"},
      {"protein": "B12", "fold change of barcode share": "0.0159 ± 0.0083"},
      {"protein": "B13", "fold change of barcode share": "< 0.00835"}
    ]}
  ]
}
